Six molecules from the supplement of paper PMC12423691 can be followed below.

B1: ALK, Q9UM73 (protein)
chain: MGAIGLLWLLPLLLSTAAVGSGMGTGQRAGSPAAGPPLQPREPLSYSRLQRKSLAVDFVVPSLFRVYARDLLLPPSSSELKAGRPEARGSLALDCAPLLRLLGPAPGVSWTAGSPAPAEARTLSRVLKGGSVRKLRRAKQLVLELGEEAILEGCVGPPGEAAVGLLQFNLSELFSWWIRQGEGRLRIRLMPEKKASEVGREGRLSAAIRASQPRLLFQIFGTGHSSLESPTNMPSPSPDYFTWNLTWIMKDSFPFLSHRSRYGLECSFDFPCELEYSPPLHDLRNQSWSWRRIPSEEASQMDLLDGPGAERSKEMPRGSFLLLNTSADSKHTILSPWMRSSSEHCTLAVSVHRHLQPSGRYIAQLLPHNEAAREILLMPTPGKHGWTVLQGRIGRPDNPFRVALEYISSGNRSLSAVDFFALKNCSEGTSPGSKMALQSSFTCWNGTVLQLGQACDFHQDCAQGEDESQMCRKLPVGFYCNFEDGFCGWTQGTLSPHTPQWQVRTLKDARFQDHQDHALLLSTTDVPASESATVTSATFPAPIKSSPCELRMSWLIRGVLRGNVSLVLVENKTGKEQGRMVWHVAAYEGLSLWQWMVLPLLDVSDRFWLQMVAWWGQGSRAIVAFDNISISLDCYLTISGEDKILQNTAPKSRNLFERNPNKELKPGENSPRQTPIFDPTVHWLFTTCGASGPHGPTQAQCNNAYQNSNLSVEVGSEGPLKGIQIWKVPATDTYSISGYGAAGGKGGKNTMMRSHGVSVLGIFNLEKDDMLYILVGQQGEDACPSTNQLIQKVCIGENNVIEEEIRVNRSVHEWAGGGGGGGGATYVFKMKDGVPVPLIIAAGGGGRAYGAKTDTFHPERLENNSSVLGLNGNSGAAGGGGGWNDNTSLLWAGKSLQEGATGGHSCPQAMKKWGWETRGGFGGGGGGCSSGGGGGGYIGGNAASNNDPEMDGEDGVSFISPLGILYTPALKVMEGHGEVNIKHYLNCSHCEVDECHMDPESHKVICFCDHGTVLAEDGVSCIVSPTPEPHLPLSLILSVVTSALVAALVLAFSGIMIVYRRKHQELQAMQMELQSPEYKLSKLRTSTIMTDYNPNYCFAGKTSSISDLKEVPRKNITLIRGLGHGAFGEVYEGQVSGMPNDPSPLQVAVKTLPEVCSEQDELDFLMEALIISKFNHQNIVRCIGVSLQSLPRFILLELMAGGDLKSFLRETRPRPSQPSSLAMLDLLHVARDIACGCQYLEENHFIHRDIAARNCLLTCPGPGRVAKIGDFGMARDIYRASYYRKGGCAMLPVKWMPPEAFMEGIFTSKTDTWSFGVLLWEIFSLGYMPYPSKSNQEVLEFVTSGGRMDPPKNCPGPVYRIMTQCWQHQPEDRPNFAIILERIEYCTQDPDVINTALPIEYGPLVEEEEKVPVRPKDPEGVPPLLVSQQAKREEERSPAAPPPLPTTSSGKAAKKPTAAEISVRVPRGPAVEGGHVNMAFSQSNPPSELHKVHGSRNKPTSLWNPTYGSWFTEKPTKKNNPIAKKEPHDRGNLGLEGSCTVPPNVATGRLPGASLLLEPSSLTANMKEVPLFRLRHFPCGNVNYGYQQQGLPLEAATAPGAGHYEDTILKSKNSMNQPGP
B2: ZBTB4, Q9P1Z0 (protein)
chain: MPPPAEVTDPSHAPAVLRQLNEQRLRGLFCDVTLIAGDTKFPAHRSVLAASSPFFREALLTSAPLPLPPATGGAAPNPATTTAASSSSSSSSSSSSSSSSASSSSSSSSSSPPPASPPASSPPRVLELPGVPAAAFSDVLNFIYSARLALPGGGGDGAAVAEIGALGRRLGISRLQGLGEGGDAWVPPTPAPMATSQPEEDSFGPGPRPAGEWEGDRAEAQAPDLQCSLPRRPLPCPQCGKSFIHPKRLQTHEAQCRRGASTRGSTGLGAGGAGPGGPAGVDASALPPPVGFRGGPEHVVKVVGGHVLYVCAACERSYVTLSSLKRHSNVHSWRRKYPCRYCEKVFALAEYRTKHEVWHTGERRYQCIFCWETFVTYYNLKTHQRAFHGISPGLLASEKTPNGGYKPKLNTLKLYRLLPMRAAKRPYKTYSQGAPEAPLSPTLNTPAPVAMPASPPPGPPPAPEPGPPPSVITFAHPAPSVIVHGGSSSGGGGSGTASTGGSQAASVITYTAPPRPPKKREYPPPPPEPAATPTSPATAVSPATAAGPAMATTTEEAKGRNPRAGRTLTYTAKPVGGIGGGGGPPTGAGRGPSQLQAPPPLCQITVRIGEEAIVKRRISETDLRPGELSGEEMEESEEDEEEEDEEEEEEDEEESKAGGEDQLWRPYYSYKPKRKAGAAGGASVGGSGLPRGRRPPRWRQKLERRSWEETPAAESPAGRARTERRHRCGDCAQTFTTLRKLRKHQEAHGGGSHSSRAGRRPSTRFTCPHCAKVCKTAAALSRHGQRHAAERPGGTPTPVIAYSKGSAGTRPGDVKEEAPQEMQVSSSSGEAGGGSTAAEEASETASLQDPIISGGEEPPVVASGGSYVYPPVQEFPLALIGGGREPGGGRGKSGSEGPVGAGEGDRMEGIGAAKVTFYPEPYPLVYGPQLLAAYPYNFSNLAALPVALNMVLPDEKGAGALPFLPGVFGYAVNPQAAPPAPPTPPPPTLPPPIPPKGEGERAGVERTQKGDVG
B3: SMAD9, O15198 (protein)
chain: MHSTTPISSLFSFTSPAVKRLLGWKQGDEEEKWAEKAVDSLVKKLKKKKGAMDELERALSCPGQPSKCVTIPRSLDGRLQVSHRKGLPHVIYCRVWRWPDLQSHHELKPLECCEFPFGSKQKEVCINPYHYRRVETPVLPPVLVPRHSEYNPQLSLLAKFRSASLHSEPLMPHNATYPDSFQQPPCSALPPSPSHAFSQSPCTASYPHSPGSPSEPESPYQHSVDTPPLPYHATEASETQSGQPVDATADRHVVLSIPNGDFRPVCYEEPQHWCSVAYYELNNRVGETFQASSRSVLIDGFTDPSNNRNRFCLGLLSNVNRNSTIENTRRHIGKGVHLYYVGGEVYAECVSDSSIFVQSRNCNYQHGFHPATVCKIPSGCSLKVFNNQLFAQLLAQSVHHGFEVVYELTKMCTIRMSFVKGWGAEYHRQDVTSTPCWIEIHLHGPLQWLDKVLTQMGSPHNPISSVS
B4: RNF31, Q96EP0 (protein)
chain: MPGEEEERAFLVAREELASALRRDSGQAFSLEQLRPLLASSLPLAARYLQLDAARLVRCNAHGEPRNYLNTLSTALNILEKYGRNLLSPQRPRYWRGVKFNNPVFRSTVDAVQGGRDVLRLYGYTEEQPDGLSFPEGQEEPDEHQVATVTLEVLLLRTELSLLLQNTHPRQQALEQLLEDKVEDDMLQLSEFDPLLREIAPGPLTTPSVPGSTPGPCFLCGSAPGTLHCPSCKQALCPACDHLFHGHPSRAHHLRQTLPGVLQGTHLSPSLPASAQPRPQSTSLLALGDSSLSSPNPASAHLPWHCAACAMLNEPWAVLCVACDRPRGCKGLGLGTEGPQGTGGLEPDLARGRWACQSCTFENEAAAVLCSICERPRLAQPPSLVVDSRDAGICLQPLQQGDALLASAQSQVWYCIHCTFCNSSPGWVCVMCNRTSSPIPAQHAPRPYASSLEKGPPKPGPPRRLSAPLPSSCGDPEKQRQDKMREEGLQLVSMIREGEAAGACPEEIFSALQYSGTEVPLQWLRSELPYVLEMVAELAGQQDPGLGAFSCQEARRAWLDRHGNLDEAVEECVRTRRRKVQELQSLGFGPEEGSLQALFQHGGDVSRALTELQRQRLEPFRQRLWDSGPEPTPSWDGPDKQSLVRRLLAVYALPSWGRAELALSLLQETPRNYELGDVVEAVRHSQDRAFLRRLLAQECAVCGWALPHNRMQALTSCECTICPDCFRQHFTIALKEKHITDMVCPACGRPDLTDDTQLLSYFSTLDIQLRESLEPDAYALFHKKLTEGVLMRDPKFLWCAQCSFGFIYEREQLEATCPQCHQTFCVRCKRQWEEQHRGRSCEDFQNWKRMNDPEYQAQGLAMYLQENGIDCPKCKFSYALARGGCMHFHCTQCRHQFCSGCYNAFYAKNKCPEPNCRVKKSLHGHHPRDCLFYLRDWTALRLQKLLQDNNVMFNTEPPAGARAVPGGGCRVIEQKEVPNGLRDEACGKETPAGYAGLCQAHYKEYLVSLINAHSLDPATLYEVEELETATERYLHVRPQPLAGEDPPAYQARLLQKLTEEVPLGQSIPRRRK
B5: FOXO4, P98177 (protein)
chain: MDPGNENSATEAAAIIDLDPDFEPQSRPRSCTWPLPRPEIANQPSEPPEVEPDLGEKVHTEGRSEPILLPSRLPEPAGGPQPGILGAVTGPRKGGSRRNAWGNQSYAELISQAIESAPEKRLTLAQIYEWMVRTVPYFKDKGDSNSSAGWKNSIRHNLSLHSKFIKVHNEATGKSSWWMLNPEGGKSGKAPRRRAASMDSSSKLLRGRSKAPKKKPSVLPAPPEGATPTSPVGHFAKWSGSPCSRNREEADMWTTFRPRSSSNASSVSTRLSPLRPESEVLAEEIPASVSSYAGGVPPTLNEGLELLDGLNLTSSHSLLSRSGLSGFSLQHPGVTGPLHTYSSSLFSPAEGPLSAGEGCFSSSQALEALLTSDTPPPPADVLMTQVDPILSQAPTLLLLGGLPSSSKLATGVGLCPKPLEAPGPSSLVPTLSMIAPPPVMASAPIPKALGTPVLTPPTEAASQDRMPQDLDLDMYMENLECDMDNIISDLMDEGEGLDFNFEPDP
B6: SKIL, P12757 (protein)
chain: MENLQTNFSLVQGSTKKLNGMGDDGSPPAKKMITDIHANGKTINKVPTVKKEHLDDYGEAPVETDGEHVKRTCTSVPETLHLNPSLKHTLAQFHLSSQSSLGGPAAFSARHSQESMSPTVFLPLPSPQVLPGPLLIPSDSSTELTQTVLEGESISCFQVGGEKRLCLPQVLNSVLREFTLQQINTVCDELYIYCSRCTSDQLHILKVLGILPFNAPSCGLITLTDAQRLCNALLRPRTFPQNGSVLPAKSSLAQLKETGSAFEVEHECLGKCQGLFAPQFYVQPDAPCIQCLECCGMFAPQTFVMHSHRSPDKRTCHWGFESAKWHCYLHVNQKYLGTPEEKKLKIILEEMKEKFSMRSGKRNQSKTDAPSGMELQSWYPVIKQEGDHVSQTHSFLHPSYYLYMCDKVVAPNVSLTSAVSQSKELTKTEASKSISRQSEKAHSSGKLQKTVSYPDVSLEEQEKMDLKTSRELCSRLDASISNNSTSKRKSESATCNLVRDINKVGIGLVAAASSPLLVKDVICEDDKGKIMEEVMRTYLKQQEKLNLILQKKQQLQMEVKMLSSSKSMKELTEEQQNLQKELESLQNEHAQRMEEFYVEQKDLEKKLEQIMKQKCTCDSNLEKDKEAEYAGQLAELRQRLDHAEADRQELQDELRQEREARQKLEMMIKELKLQILKSSKTAKE

This is one part of the list. Binding of human transcription factors and regulators to the viral nucleoprotein by AlphaScreen, crude cell-free proteins, amounts not normalised, one pass. Fold of the Venus control; higher = more signal. No active / inactive call. Single-pass screen; sequences are the whole Swiss-Prot entries looked up by name.

The assay deals with nucleoprotein N of Crimean-Congo hemorrhagic fever virus. The experiment in a line: AlphaScreen luminescence signal relative to Venus negative control (fold); higher = stronger binding to CCHFV N. The method, then: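 AlphaScreen binding of cell-free made, FLAG-GST-tagged human transcription factors and regulators (crude translation products) to biotinylated N protein; signal as fold of the FLAG-GST-Venus control. One pass.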
(In general: Bead proximity is the source of the signal in Alpha formats.)
The molecule B1 gave an AlphaScreen luminescence signal of 3.35.
Take B2: the AlphaScreen luminescence signal was 6.56.
B3 displayed an AlphaScreen luminescence signal of 1.95.
In the case of B4 it was 2.19; in that of B5, 5.02; in that of B6, 1.81.
